Laboratory results reported in PubChem BioAssay AID1458 (National Center for Advancing Translational Sciences (NCATS), 2008).
The campaign covered roughly 210,000 compounds. About 5,900 (2.8%) were called active. The inconclusive results got no clear call from the source; some entries with a clear call stand among them for comparison. The call rests on the fitted dose curve; in most records, active means well fitted activation curve with a large enough effect; inconclusive means small, poorly fitted or top-dose-only effect; inactive means no such curve, though single readings can be large or run the other way. Potencies of inconclusive entries are doubtful fits and often do not repeat.
Potency means the concentration at half of the fitted maximal effect; tags describe the fitted curve by direction and shape.

Assay: qHTS Assay for Enhancers of SMN2 Splice Variant Expression; further: nearly all actives have a fitted effect of over 55% in size; on activity change, positive = activation: % of control where 0% means no effect
Settings: HEK293 SMN2-luciferase splicing reporter, luminescence, 30-36 h; activity change, positive = activation: at 46.1 µM (top of the series)
Procedure, shortened: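 qHTS luciferase splicing reporter: luminescence rises when SMN2 exon 7 is included in transfected HEK293 cells. Compound exposure lasted 30-36 h at 37C, with 4.5 mM final sodium butyrate as control, followed by a ONE-Glo read.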
For `CCOc1cc(-c2nc(-c3ccc(C)nc3OC)no2)cc(OCC)c1OCC`, the Potency was “inactive”. With `Cc1cc(CNC(=O)c2ccc3c(c2)OCO3)c2ccccc2n1` the Potency was “inactive”. For `CC(c1ccc(F)cc1)n1c(-c2cccs2)n[nH]c1=S` (stereo unspecified), the Potency was inconclusive: 5.62 µM [activator, single point]. With `COc1ccc(OC)c(C(=O)c2nc3c(n2O)CCCCC3)c1` the Potency was inconclusive: 4.47 µM [activator, partial curve, poor fit]. With `Cc1cc(C)nc(Nc2n[nH]c(-c3ccc(N)cc3)n2)n1` the Potency was inconclusive: 20 µM [activator, partial curve, poor fit]. With `Cc1cc(N)n2ncc(-c3ccc(F)cc3)c2n1` the Potency was inconclusive: 22.4 µM [activator, single point]. With `CCNC(=O)N1C(=O)C2(OCCO2)c2ccccc21` the Potency was “inactive”. For `Cc1ccc(S(=O)(=O)NNC(=O)C2CC=CCC2C(=O)O)cc1` (stereo unspecified), the Potency was inconclusive: 35.5 µM [activator, single point]. For `O=C(O)[C@@H](O)[C@@H](O)[C@H](O)[C@H](O)CO`, the activity change, positive = activation was inactive: -6.93% [at 9.22 µM]. In the case of `Cc1cccc(NC(=O)C2CCN(S(=O)(=O)c3c(C)noc3/C=C/c3ccco3)CC2)c1C`, the Potency is reported as “inactive”. In the case of `O=C1CCCC2=C1C1(CCCCC1)N=C(Nc1nc3ccccc3o1)N2`, the Potency is reported as inconclusive: 28.2 µM [activator, single point]. For `Cc1nc(NC(=O)/C=C/c2ccccc2)n[nH]1`, the Potency was inconclusive: 15.8 µM [activator, partial curve]. With `COc1ccc(F)cc1S(=O)(=O)N1CCCC(C)C1` (stereo unspecified) the Potency was inconclusive: 0.0178 µM [activator, full curve, poor fit]. In the case of `CCc1nnc(NC(=O)CSc2nc(-c3ccccc3)cc(-c3ccc(OC)cc3)c2C#N)s1`, the Potency is reported as “inactive”. In the case of `COc1cc(-c2nc(CN3CCN(CC(C)C)C(=O)[C@@H]3C)c(C)o2)ccc1F`, the Potency is reported as “inactive”. For `Cc1nnc(SCC(=O)NCc2ccccc2)[nH]c1=O`, the Potency was inconclusive: 3.98 µM [activator, single point]. For `CNc1c([N+](=O)[O-])cnn1-c1ccccc1F`, the Potency was inconclusive: 17.8 µM [activator, partial curve]. With `O=C(Nc1ccccc1)N1CCC2(CC1)CCN(C(=O)c1ccncc1)CC2` the Potency was “inactive”. For `CCC(=O)N1CCc2cc(Br)cc(S(=O)(=O)N3CCN(c4cccc(Cl)c4)CC3)c21`, the Potency was “inactive”. For `O=[N+]([O-])c1cccc(/C=N/N2CCN(Cc3ccccc3)CC2)c1`, the Potency was inconclusive: 31.6 µM [activator, single point]. For `COc1ccc2c(CC(=O)Nc3ncc(C)s3)coc2c1`, the Potency was inconclusive: 35.5 µM [activator, single point]. For `COc1ccc(C(c2oc(CO)cc(=O)c2O)c2oc(CO)cc(=O)c2O)cc1OC`, the Potency was inconclusive: 10 µM [activator, partial curve, poor fit]. For `CCOc1ccc(N2C(=O)c3[nH]nc(-c4ccc(OC)cc4)c3C2c2cccs2)cc1` (stereo unspecified), the Potency was “inactive”. In the case of `CC1=C(C(=O)Nc2ccccc2)C(c2ccc(O)cc2)N2C(=O)CSC2=N1` (stereo unspecified), the Potency is reported as inconclusive: 3.55 µM [activator, full curve, poor fit]. For `COc1cc(C(=O)Nc2cccc(-c3nc4cc(C)ccc4o3)c2)cc(OC)c1OC`, the Potency was “inactive”. For `O=C(Nc1cccnc1)c1cccc(NC(=O)c2ccco2)c1`, the Potency was “inactive”. With `CC(C)(c1ccccc1)c1ccc(OCCN)cc1` the Potency was inconclusive: 5.62 µM [activator, single point]. For `COc1ccc(OC)c2sc(N3CCCCC3)nc12`, the Potency was inconclusive: 11.2 µM [activator, partial curve]. In the case of `c1cncc(-c2nc(-c3ccco3)cs2)c1`, the Potency is reported as inconclusive: 35.5 µM [activator, single point]. For `COC(=O)c1cccc(COC(=O)c2cccnc2SC)c1`, the Potency was inconclusive: 14.1 µM [activator, partial curve, poor fit]. For `Cc1cc(-c2ccc(Br)cc2)n[nH]1`, the Potency was inconclusive: 22.4 µM [activator, partial curve]. With `COc1ccc2c(c1)Sc1ccccc1N2` the Potency was “inactive”. For `Cc1cc(N2CCC(C(=O)N(CC(C)C)CC(C)C)CC2)n2nc(C)c(-c3ccc(Cl)cc3)c2n1`, the Potency was “inactive”. For `Cc1csc(NC(=O)CSc2nnc(-c3cc(C)on3)o2)n1`, the Potency was inconclusive: 35.5 µM [activator, single point]. In the case of `Cc1nc(N2CCOCC2)c2nc(-c3ccccc3)n(CCCN3CCOCC3)c2n1`, the Potency is reported as inconclusive: 3.55 µM [activator, single point]. For `Cc1c(NC(=O)CCC(=O)N2CCOCC2)c(=O)n(-c2ccccc2)n1C`, the Potency was inconclusive: 3.16 µM [activator, partial curve, poor fit]. In the case of `O=C(O)c1ccccc1SCc1cn2cc(Cl)ccc2n1`, the activity change, positive = activation is reported as inconclusive: 30.1% [activator]. For `CCCCOC(=O)Cn1c(=N)n(CCN(CC)CC)c2ccccc21`, the Potency was inconclusive: 5.62 µM [activator, partial curve]. In the case of `N#Cc1ccsc1NC(=O)COc1ccc(-c2nnco2)cc1`, the Potency is reported as inconclusive: 8.91 µM [activator, partial curve]. For `CC(NC(=O)c1ccccc1Cl)C(=O)O` (stereo unspecified), the Potency was inconclusive: 0.0035 µM [activator, full curve, poor fit]. For `COC(=O)c1ccc(NC(=O)c2ccc3c(c2)OCO3)cc1`, the Potency was inconclusive: 7.08 µM [activator, partial curve, poor fit]. In the case of `CCCc1cc(=O)oc2cc(OCc3nn[nH]n3)ccc12`, the Potency is reported as inconclusive: 1.58 µM [activator, full curve, poor fit]. For `COCC(C)NC(=S)Nc1ccccc1[N+](=O)[O-]` (stereo unspecified), the Potency was inconclusive: 14.1 µM [activator, single point]. In the case of `CCN1CCCC(OC(=O)c2cc(-c3ccccc3Cl)nc3ccccc23)C1` (stereo unspecified), the Potency is reported as “inactive”. With `N#C/C(=C\Nc1ccccc1SC(F)(F)F)c1nc(-c2ccc(Cl)cc2)cs1` the Potency was inconclusive: 5.62 µM [activator, partial curve]. In the case of `CSc1ccccc1NC(=O)c1cc(CC(C)C)on1`, the Potency is reported as inconclusive: 15.8 µM [activator, single point]. In the case of `CC(C)Cn1nnnc1S(=O)(=O)CC#N`, the Potency is reported as “inactive”. With `CCNC(=S)N/N=C/c1cccc(C)c1` the Potency was inconclusive: 10 µM [activator, single point]. For `O=C(O)c1ccc(N/N=C/c2cccc(F)c2)cc1`, the Potency was active: 1 µM. For `Cc1cc(C)nc(NC2=NCC(=O)N2c2ccc(F)c(Cl)c2)n1`, the Potency was inconclusive: 0.0501 µM [activator, full curve, poor fit]. In the case of `COc1ccc(O)c(C2=Nc3ccccc3N=C(c3ccccc3)C2)c1`, the Potency is reported as inconclusive: 3.16 µM [activator, full curve]. With `C=CCSc1n[nH]c(-c2ccc(OCCCC)cc2)n1` the Potency was inconclusive: 0.398 µM [activator, full curve]. For `COc1cc(C)c(S(=O)(=O)n2nnc3ccccc32)cc1C`, the Potency was inconclusive: 4.47 µM [activator, full curve]. In the case of `CCOC(=O)c1cnc2c(ccc3ccccc32)c1NCCO`, the Potency is reported as “inactive”. With `Cn1c(CN2CCCC2)nc2cc(NC(=O)c3cccs3)ccc21` the Potency was inconclusive: 31.6 µM [activator, single point]. For `CCOC(=O)C1=C(C)N=C2SCCC(=O)N2C1c1ccc(OC)cc1` (stereo unspecified), the Potency was inconclusive: 3.16 µM [activator, single point]. With `Cc1ccc(/C=N/NC(=O)COc2ccccc2-c2ccccc2)cc1` the Potency was inconclusive: 35.5 µM [activator, single point]. With `CC(C)c1ccc(C(=O)NNC(=O)C2CC=CCC2C(=O)O)cc1` (stereo unspecified) the Potency was inconclusive: 11.2 µM [activator, partial curve]. In the case of `CCCCOc1ccc(-c2nc(/C=N/c3nccs3)c(O)o2)cc1`, the Potency is reported as “inactive”. With `Cc1ccccc1OCCn1cc(/C=C(\C#N)C(=O)NCc2ccco2)c2ccccc21` the Potency was inconclusive: 0.0032 µM [activator, full curve, poor fit]. With `CC1CC(C)CN(C(=O)Cn2c(=O)n(CCCCC(=O)NCc3ccco3)c(=O)c3ccccc32)C1` (stereo unspecified) the Potency was inconclusive: 0.891 µM [activator, full curve, poor fit]. With `Cc1nn(-c2ccccc2)c(Cl)c1/C=N/Nc1ccc(Cl)c(C(=O)O)c1` the Potency was active: 0.447 µM. With `CCOC(=O)N1CCN(C(=O)CSc2nnc(COc3ccccc3)o2)CC1` the Potency was active: 3.98 µM. In the case of `CC(=O)c1cc(-c2ccccc2)n(CC(=O)Nc2ccc(C)c(C)c2)c1C`, the Potency is reported as inconclusive: 1 µM [activator, full curve, poor fit]. For `COc1ccc(-n2nnnc2SCC#CCO)cc1`, the Potency was inconclusive: 10 µM [activator, partial curve, poor fit]. In the case of `Clc1ccc(-c2nnc3sc(Cc4cccs4)nn23)cc1`, the Potency is reported as inconclusive: 4.47 µM [activator, partial curve, poor fit]. With `Cc1ccccc1-n1c(SC/C(O)=C(\C#N)c2nc3ccccc3[nH]2)nnc1-c1ccncc1` the Potency was inconclusive: 15.8 µM [activator, partial curve, poor fit]. With `C=C(C)CNC(=S)Nc1nc2c(cc1C(=O)OCC)CCCC2` the Potency was active: 4.47 µM. In the case of `CN1CCN(C(=O)c2ccc(CS(=O)(=O)c3c(Cl)cccc3Cl)o2)CC1`, the Potency is reported as “inactive”. In the case of `Cc1ccc2cc(C(c3nnnn3Cc3ccccc3)N3CCN(c4ccccc4)CC3)c(=O)[nH]c2c1` (stereo unspecified), the Potency is reported as inconclusive: 0.794 µM [activator, full curve]. In the case of `Cc1ccc(-n2c(O)c(C=Nc3ccc(S(=O)(=O)Nc4ncccn4)cc3)c3ccccc3c2=O)cc1C`, the Potency is reported as inconclusive: 5.01 µM [activator, partial curve, poor fit].
